# From the supplement of paper PMC9446081
# Out of some 39,000 compounds screened, about 220 (0.56%) showed activity. The list shows a part of the results.
# Tested on: Escherichia coli K-12 BW25113
# Assay: relative growth (OD600 normalised to plate interquartile mean) (fraction); higher = less growth inhibition, active = 0.2 or less
# Conditions: 50 µM; LB; incubation time: overnight (16-24 h)
# 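Also: static incubation at 37 °C against the wild-type strain, values averaged over two biological replicates.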
row,Structure (SMILES),relative growth
1,C[C@H](CO)N1C[C@H](C)[C@H](CN(C)C(=O)C2CCCCC2)OCCCC[C@H](C)Oc2ccc(NC(=O)Cc3ccccc3)cc2C1=O,inactive: 1.02
2,S=P(N1CC1)(N1CC1)N1CC1,inactive: 0.951
3,C[C@H]1CN([C@@H](C)CO)C(=O)c2cc(NC(=O)Nc3cccc4ccccc34)ccc2O[C@H]1CN(C)Cc1ccncc1,inactive: 0.972
4,Cc1ccc(S(=O)(=O)Nc2cccc3c2O[C@H](CN(C)S(=O)(=O)c2c(C)noc2C)[C@@H](C)CN([C@H](C)CO)C3=O)cc1,inactive: 0.986
5,COc1ccc(NC(=O)Nc2ccc3c(c2)C(=O)N([C@@H](C)CO)C[C@H](C)[C@H](CN(C)S(=O)(=O)c2ccc(C)cc2)OCCCC[C@@H](C)O3)cc1,inactive: 1.03
6,C[C@@H]1CCCCO[C@H](CN(C)S(C)(=O)=O)[C@@H](C)CN([C@H](C)CO)C(=O)c2cc(NS(=O)(=O)c3cccs3)ccc2O1,inactive: 0.977
7,O=C(CCCCCNC(=O)OCc1ccc(CO[C@H]2C[C@@H](c3coc4ccccc4c3=O)C=C(C(=O)N3CCN(Cc4ccccc4)CC3)O2)cc1)NO,inactive: 0.996
8,C[C@@H]1CN([C@H](C)CO)C(=O)CCCn2nncc2CO[C@@H]1CN(C)S(=O)(=O)c1ccccc1C#N,inactive: 1.03
9,C[C@@H]1CN([C@H](C)CO)C(=O)c2cc(NC(=O)Nc3ccc4c(c3)OCO4)ccc2O[C@@H](C)CCCCO[C@H]1CN(C)S(=O)(=O)c1ccccc1,inactive: 1.02
10,C[C@H](CO)N1C[C@H](C)[C@@H](CN(C)S(C)(=O)=O)Oc2ncc(C#Cc3cccnc3)cc2C1=O,inactive: 0.967
11,COc1ccc(S(=O)(=O)N[C@@H]2C=C[C@@H](CC(=O)NCCc3ccncc3)O[C@H]2CO)cc1,inactive: 0.991
12,C[C@@H]1CN([C@H](C)CO)C(=O)c2c(c3ccccc3n2C)-c2ccccc2CO[C@@H]1CN(C)Cc1ccc(O)cc1,inactive: 1.04
13,COc1ccc(S(=O)(=O)Nc2ccc3c(c2)C(=O)N([C@@H](C)CO)C[C@H](C)[C@@H](CN(C)S(=O)(=O)c2ccc(OC)cc2)O3)cc1,inactive: 1.03
14,C[C@@H]1CCCCO[C@H](CN(C)C(=O)Nc2ccc(F)cc2)[C@H](C)CN([C@H](C)CO)C(=O)c2cc(NS(=O)(=O)c3ccccc3)ccc2O1,inactive: 1.02
15,C[C@H]1CN([C@@H](C)CO)C(=O)c2cc(NC(=O)C3CC3)ccc2O[C@@H]1CN(C)S(=O)(=O)c1cccs1,inactive: 1.01
16,C[C@@H]1CN([C@@H](C)CO)C(=O)c2cc(NS(=O)(=O)c3ccc(Cl)cc3)ccc2O[C@H]1CN(C)Cc1ccc(Cl)c(Cl)c1,inactive: 1.02
17,CN1C(=O)c2cc(NC(=O)c3cnccn3)ccc2OC[C@@H]2O[C@H](CC(=O)N[C@H]3CCN(Cc4ccccc4)C3)CC[C@@H]21,inactive: 0.974
18,O=C(NCCO)c1cc(C(=O)NCCO)cc(C(=O)NCCO)c1,inactive: 0.981
19,COc1ccc(S(=O)(=O)Nc2ccc3c(c2)CC(=O)N([C@H](C)CO)C[C@H](C)[C@@H](CN(C)Cc2ccc(Cl)c(Cl)c2)O3)cc1,inactive: 0.987
20,COc1ccc2c3c([nH]c2c1)[C@@H](CO)N(C[C@]13CN(Cc2nccs2)C1)S(=O)(=O)c1ccc(cc1)C,inactive: 1.02
21,C[C@@H]1CN([C@H](C)CO)C(=O)c2cccc(NC(=O)c3nc4ccccc4s3)c2O[C@@H]1CN(C)Cc1ccc(-c2ccccc2)cc1,inactive: 0.953

row,Structure (SMILES),relative growth
1,O=C1C[C@@H](O)[C@@H](O)c2c(O)cccc21,inactive: 1
2,O=C(C[C@@H]1C=C[C@H](NC(=O)c2cccnc2)[C@@H](CO)O1)NCCN1CCCCC1,inactive: 0.962
3,C[C@H](CO)N1C[C@H](C)[C@@H](CN(C)S(=O)(=O)c2cn(C)cn2)Oc2ccc(NC(=O)Nc3ccccc3)cc2C1=O,inactive: 1
4,C[C@H]1CN([C@@H](C)CO)S(=O)(=O)c2ccc(-c3ccncc3)cc2O[C@@H]1CN(C)Cc1ccc(Oc2ccccc2)cc1,inactive: 1.03
5,C[C@@H]1CN([C@H](C)CO)C(=O)c2cccc(NC(=O)c3nc4ccccc4s3)c2O[C@H]1CN(C)CC1CCCCC1,inactive: 0.968
6,CC(C)N1C[C@@H](CN(C)Cc2ccc(Cl)cc2)Oc2c(cccc2-c2nnc(-c3ccncc3)o2)C1=O,inactive: 1
7,CCCC[C@H](C)C[C@H](O)/C=C/[C@H]1[C@H](O)CC(=O)[C@@H]1CCCC/C=C/C(=O)O,inactive: 1.01
8,C[C@@H]1CCCCO[C@H](CN(C)C(=O)Nc2cccc3ccccc23)[C@@H](C)CN([C@H](C)CO)C(=O)c2cc(NC(=O)Nc3ccc(C(F)(F)F)cc3)ccc2O1,inactive: 0.999
9,C[C@@H]1CN([C@@H](C)CO)C(=O)c2cc(NC(=O)c3ccncc3)ccc2O[C@@H](C)CCCCO[C@@H]1CN(C)C(=O)Nc1cccc2ccccc12,inactive: 0.989
10,CCS(=O)(=O)Nc1ccc2c(c1)C(=O)N(C)[C@H]1CC[C@@H](CC(=O)NCc3ccc(OC)cc3)O[C@H]1CO2,inactive: 1.03
11,CO[C@@H]1CN(C)C(=O)c2ccc(NS(=O)(=O)c3ccccc3)cc2OC[C@H](C)N(C(=O)NC(C)C)C[C@H]1C,inactive: 0.999
12,CCCOc1ccc2nc(NC(=O)OC)[nH]c2c1,inactive: 0.991
13,C[C@H]1CCCCO[C@H](CN(C)Cc2ccc(Cl)c(Cl)c2)[C@@H](C)CN([C@@H](C)CO)C(=O)c2cc(NC(=O)Nc3ccccc3)ccc2O1,inactive: 1
14,c1ccc(Oc2ccncc2)cc1,inactive: 0.883
15,C[C@@H]1CCCCO[C@@H](CN(C)C(=O)Nc2ccc(F)cc2)[C@H](C)CN([C@@H](C)CO)C(=O)c2cc(NS(=O)(=O)c3ccc(F)cc3)ccc2O1,inactive: 1.03
16,CC(=O)N1CCS(=O)(=O)[C@H]2CCN(S(=O)(=O)Cc3ccccc3)CC[C@@H]21,inactive: 1.01
17,COC(=O)[C@@H]1C[C@H](C#N)N[C@@H]1c1ccco1,inactive: 0.989
18,Cc1ccc(C(=O)O)c(=O)[nH]1,inactive: 1.05
19,Cc1noc(C)c1S(=O)(=O)Nc1ccc2c(c1)CC(=O)N([C@@H](C)CO)C[C@H](C)[C@H](CN(C)S(=O)(=O)c1ccc(F)cc1)O2,inactive: 1.01
20,C[C@H]1CC/C=C\[C@H]2O[C@@]34C=CCN(Cn5nnc6ccccc65)C(=O)[C@H]3N(CCCCCCO)C(=O)[C@@H]4[C@@H]2C(=O)O1,inactive: 0.983
21,C[C@H](CO)N1C[C@H](C)[C@@H](CN(C)C(=O)Nc2ccc(C(F)(F)F)cc2)OCc2cn(nn2)CCCC1=O,inactive: 0.961

row,Structure (SMILES),relative growth
1,COc1ccc(S(=O)(=O)N(C)C[C@@H]2Oc3c(NS(=O)(=O)c4ccc(F)cc4)cccc3C(=O)N([C@@H](C)CO)C[C@@H]2C)cc1,inactive: 1
2,C[N+](C)(C)CCOP(=O)([O-])OP(=O)(O)OCC1OC(n2ccc(N)nc2=O)C(O)C1O (stereo unspecified),inactive: 0.967
3,C[C@@H]1CN([C@H](C)CO)S(=O)(=O)c2ccc(-c3ccc(C#N)cc3)cc2O[C@@H]1CN(C)C(=O)CN(C)C,inactive: 0.998
4,C[C@H]1CN([C@@H](C)CO)C(=O)c2cccc(NC(=O)Nc3cccc4ccccc34)c2O[C@@H]1CN(C)S(=O)(=O)c1ccc(Cl)cc1,inactive: 1.03
5,COc1cccc(S(=O)(=O)N(C)C[C@@H]2OCc3cn(nn3)CCCC(=O)N([C@H](C)CO)C[C@@H]2C)c1,inactive: 0.993
6,Cc1noc(C)c1S(=O)(=O)Nc1cccc2c1O[C@H](CN(C)C(=O)NC(C)C)[C@H](C)CN([C@@H](C)CO)C2=O,inactive: 0.98
7,COc1ccc(NC(=O)N(C)C[C@@H]2OCCCC[C@H](C)Oc3ccc(NS(=O)(=O)c4c(C)noc4C)cc3C(=O)N([C@H](C)CO)C[C@@H]2C)cc1,inactive: 1.04
8,O=C(CCCCCCC(=O)N/N=C/[C@H](O)[C@@H](O)[C@H](O)[C@H](O)CO[C@H]1O[C@H](CO)[C@H](O)[C@H](O)[C@H]1O)NO,inactive: 1.01
9,CC(C)NC(=O)N(C)C[C@H]1Oc2ccc(NS(=O)(=O)c3cn(C)cn3)cc2CC(=O)N([C@H](C)CO)C[C@H]1C,inactive: 0.997
10,CCCC[C@@H](O)c1ccccc1,inactive: 0.992
11,Cc1noc(C)c1NC(=O)N[C@H]1CC[C@@H](CC(=O)N2CCN(C)CC2)O[C@H]1CO,inactive: 1.03
12,COc1ccc(S(=O)(=O)N(C)C[C@H]2Oc3c(NC(=O)Nc4cccc5ccccc45)cccc3C(=O)N([C@@H](C)CO)C[C@H]2C)cc1,inactive: 1.01
13,CN1CCN(C(=O)C[C@H]2CC[C@@H]3[C@H](COc4ccc(NC(=O)c5ccc(F)c(F)c5)cc4C(=O)N3C)O2)CC1,inactive: 0.993
14,Cc1noc(C)c1S(=O)(=O)N(C)C[C@H]1Oc2ccc(NC(=O)Nc3ccccc3)cc2CC(=O)N([C@@H](C)CO)C[C@@H]1C,inactive: 0.924
15,CN(C)CCCNC(=O)C[C@H]1CC[C@H](NS(=O)(=O)c2ccccc2)[C@@H](CO)O1,inactive: 0.989
16,C[C@@H]1CN([C@@H](C)CO)C(=O)c2cc(NC(=O)Nc3ccccc3)ccc2O[C@@H](C)CCCCO[C@H]1CN(C)S(=O)(=O)c1ccccc1F,inactive: 1.02
17,O=C(O)C(O)C(O)C(OC1OC(CO)C(O)C(O)C1O)C(O)CO (stereo unspecified),inactive: 0.9
18,C[C@@H]1CN([C@H](C)CO)C(=O)c2cc(N(C)C)ccc2O[C@@H](C)CCCCO[C@@H]1CN(C)C(=O)Nc1cccc2ccccc12,inactive: 1.01
19,C[C@H]1CCCCO[C@@H](CN(C)Cc2ccncc2)[C@@H](C)CN([C@@H](C)CO)C(=O)c2cc(NC(=O)Cc3ccccc3)ccc2O1,inactive: 0.984
